The structures appear in SMILES notation. The whole screen tested about 52,000 compounds, of which about 1,700 (3.3%) were called active. No stated cut-off is given here; in the data, active means survival mostly below about 52% (no sharp cut-off); inactive means mostly above about 56%. The list shows a part of the results.

For 90 compounds, survival results are on record in PubChem BioAssay AID463173 (ICCB-Longwood Screening Facility, Harvard Medical School, 2010).

For the assay, the system named is Wild type. Briefly: growth inhibition of S. aureus wild type versus tarO mutant, primary screen, teichoic acid synthesis inhibitors, RN4220, OD600 (AID 463173). The conditions noted are these: S. aureus RN4220 wild type/DeltatarO growth, OD600, 18 h, hits give low values, screened at 18.75 µg/mL (by protocol).
Take `Cc1cc(=O)[nH]c2nnc(SCc3ccc(F)cc3)n12`: the survival was inactive: 68%. `COc1ccc(N2C(=O)CS(=O)(=O)C23C(=O)N(Cc2cccc(F)c2)c2ccccc23)cc1OC` (stereo not given): the survival was inactive: 72%.

Turning to `Cc1ccc(C)c(S(=O)(=O)c2nnn3c2nc(Nc2ccc(C)c(C)c2)c2sccc23)c1`, the survival is inactive: 93%. The value for `O=C(OCC1CCNCC1)c1ccc2c(c1)OCO2` was inactive: 117%. The figure for `O=C(NCc1cccs1)c1ccc(Cn2c(SCc3ccccc3)nc3cccnc32)cc1` is inactive: 73%. In the case of `O=C(Nc1c(C(=O)N2CCN(c3ccccc3)CC2)oc2ccccc12)c1ccc(Br)o1`, the survival is inactive: 81%. The value for `CC1CN(CN2C(=O)CCC2=O)CC(C)O1` (stereo not given) was inactive: 116%; that for `Cc1cc(Cl)ccc1OCC(=O)Nc1c(Cl)ccc2nsnc12` was inactive: 96%; that for `Cc1ccc(NC(=O)CNC2CCCCC2)cc1Cl` was inactive: 100%. `COc1ccccc1-c1nc(SCC(=O)NCc2ccc(C)cc2)c2c(=O)n(C)c(=O)n(C)c2n1`: the survival is inactive: 68%.

In the case of `Cc1ccc(-c2ccc(=O)n(CC(=O)Nc3ccc(C)cc3Cl)n2)cc1`, the survival was inactive: 80%. For `O=C(CSc1nnc(CNc2ccc(F)cc2)o1)N1c2ccccc2Sc2ccccc21`, the survival was inactive: 105%.

As to `S=c1[nH]nc(-c2ccncc2)n1Cc1ccccc1`, the survival was inactive: 98%.

As to `O=C(COc1ccccc1F)Nc1ccc2oc(-c3cccc(Cl)c3)nc2c1`, the survival is inactive: 113%. The figure for `Cc1cccc(CN2C(=O)N(c3ccc(C(C)C)cc3)S(=O)(=O)c3ccccc32)c1` is inactive: 92%; for `COc1cccc(/C=C/c2nc(C#N)c(NCCc3ccccc3)o2)c1` it is inactive: 87%. The value for `COc1ccc(C2C=C(c3ccccc3)Nc3nc(NC(=O)c4cccc([N+](=O)[O-])c4)nn32)cc1` (stereo not given) was inactive: 79%; that for `COc1ccc(C(=O)Nc2ccc3oc(-c4cccnc4)nc3c2)cc1` was inactive: 75%. The value for `Clc1cccc(N2CCN(c3nc4ccccc4n4nnnc34)CC2)c1` was inactive: 77%. On to `Cc1ccc(OCC(=O)Nc2cccc(-c3nc4ccccc4s3)c2)cc1`, for which the survival was inactive: 55%. In the case of `C=C(C)Cn1c(CO)nc2ccccc21`, the survival is inactive: 92%. The value for `COc1cccc(CNC(=O)c2sc3nc(C)cc(C)c3c2-n2cccc2)c1OC` was inactive: 93%; that for `CCOC(=O)c1ccc(NC(=O)C2CCCN(c3ncnc4onc(-c5ccc(F)cc5)c34)C2)cc1` (stereo not given) was inactive: 67%; that for `CCOc1ccc(NC(=O)C2CC(=O)NC(=Nc3ccc(Cl)c(Cl)c3)S2)cc1` (stereo not given) was inactive: 78%. For the compound `Cc1c(C(=O)NCc2ccccc2)sc2nc3n(c(=O)c12)CCCCC3`, the survival was inactive: 79%. As to `COC(=O)c1sccc1S(=O)(=O)N1CCN(c2cc(Cl)ccc2C)CC1`, the survival is inactive: 51%. The value for `COC(=O)C(Cc1c[nH]c2ccccc12)NC(=O)COc1cccc(C)c1` (stereo not given) was inactive: 88%. The figure for `Cc1ccc(Cl)cc1N1CCN(C(=O)c2ccc(NC(=O)c3nsc4ccccc34)cc2)CC1` is active: 1%. The value for `CCOC(=O)COc1ccc(CC)cc1C(=O)c1ccn2nc(-c3ccccc3)cc2n1` was inactive: 68%; that for `Cc1ccc(NC(=O)c2oc3ccc(S(=O)(=O)N4CCC5(CC4)OCCO5)cc3c2C)cc1C` was inactive: 124%. `Cc1ccc(-c2n[nH]c3c2C(c2ccc(C(C)(C)C)cc2)NC3=O)cc1` (stereo not given): the survival is inactive: 125%. The value for `Cc1nn(S(=O)(=O)c2ccc(C(C)(C)C)cc2)c(C)c1S(=O)(=O)N1CCCCCC1` was inactive: 59%.

For the compound `COCCNC(=O)CCn1c(=O)c2cc(OC)c(OC)cc2n(CC(=O)Nc2ccc(Cl)cc2F)c1=O`, the survival was inactive: 72%. Take `CCC1CN(C(=O)N2CCC(C(=O)NCc3ccc(N(C)C)cc3)CC2)c2ccccc2O1` (stereo not given): the survival is inactive: 105%.

For the compound `Cc1cccc(-c2cc3nc(-c4ccccc4)cc(=O)n3[nH]2)c1`, the survival was inactive: 93%. Consider `CCOC(=O)c1ccc(N2CCN(c3cc(C)ccc3C)CC2)c(NC(=O)Nc2ccc(CC)cc2)c1`, for which the survival is inactive: 63%. With `CCCCC(=O)NCc1nc2cccnc2n1Cc1ccc(OC)cc1`, the survival was inactive: 76%. As to `COc1cccc(Nc2ccc3cc(S(=O)(=O)N4CCC(C)CC4)ccc3n2)c1`, the survival is inactive: 63%. Consider `Cc1cn2c(=O)cc(COC(=O)c3cccc(NC(=O)c4ccc(C(C)(C)C)cc4)c3)nc2s1`, for which the survival was inactive: 101%. With `CCn1cc2nc(SCC(=O)Nc3ccc(OC)c(OC)c3)n(Cc3ccc(Cl)cc3)c(=O)c2n1`, the survival is inactive: 57%.

On to `CC(=O)c1cccc(NC(=O)C2CCN(C(=O)c3cnn(-c4ccccc4)c3-n3cccc3)CC2)c1`, for which the survival is inactive: 128%.

In the case of `Cc1c(C(=O)NCc2ccccc2Cl)sc2nc3n(c(=O)c12)CCCCC3`, the survival is inactive: 104%. The figure for `Cc1ccccc1-c1nc2scc(CCNS(=O)(=O)c3ccccc3)n2n1` is inactive: 81%; for `Cc1nn2c(=O)cc(COC(=O)c3cccc(NC(=O)CCc4ccccc4)c3)nc2s1` it is inactive: 71%.

In the case of `COc1ccc(-c2cc(-c3ccc(F)cc3)nc3c2COc2ccc(F)cc2-3)cc1`, the survival is inactive: 68%. For `CCOc1ccc(-n2c(/C=C/c3cccc(F)c3)nc3cc(OC)c(OC)cc3c2=O)cc1`, the survival was inactive: 102%. Regarding `COc1ccc(-c2oc3ncn4nc(-c5ccccc5O)nc4c3c2-c2ccc(OC)cc2)cc1`, the survival is inactive: 67%. The figure for `O=C(NCc1ccccc1)C1CCCN(S(=O)(=O)c2cccc3nsnc23)C1` (stereo not given) is inactive: 96%; for `CC(C)(C)OC(=O)N1CCC(c2c(C(=O)Nc3ccc4c(c3)OCCO4)cnn2-c2ccc(Cl)cc2)CC1` it is inactive: 112%; for `O=C1CN(C(=O)COc2ccc(Cl)cc2)C(c2ccccc2)c2cc(Br)ccc2N1` (stereo not given) it is inactive: 72%. The value for `CCOc1ccc(NC(=O)CN2C(=O)CC(C)Sc3ccccc32)cc1` (stereo not given) was inactive: 86%; that for `COc1ccc(CCNC(=O)C(CC(C)C)N2Cc3ccccc3C2=O)c(OC)c1OC` (stereo not given) was inactive: 78%.

For `CCn1cc(CCC(=O)NCc2ccc(C)cc2)c2ccccc21`, the survival was inactive: 83%. The figure for `Cc1cc(C)nc(NC(=O)COc2ccc(Br)cc2)n1` is inactive: 105%. The figure for `Cc1ccc2c(c1)C(Cc1ccccc1F)C(=O)N2` (stereo not given) is inactive: 105%; for `Cc1cccc(C(=O)Nc2cc(-c3nc4cccnc4s3)ccc2C)c1` it is inactive: 86%; for `S=C(NCCCN1CCOCC1)Nc1ccccc1` it is inactive: 114%. `COc1ccc(C)cc1NC(=O)C1CCN(S(=O)(=O)c2ccc3[nH]c(=O)oc3c2)CC1`: the survival is inactive: 59%. For `CC(C)Oc1ccccc1C1C=C(C(=O)O)Nc2ncnn21` (stereo not given), the survival was inactive: 126%.

For `COc1ccc(CCn2c3c(c(=O)[nH]c2=O)C(NC(=O)c2ccccc2F)(C(F)(F)F)C(=O)N3)cc1OC` (stereo not given), the survival was inactive: 77%. For `COc1cc2c(=O)n(Cc3ccccc3Cl)c(=O)n(CC(=O)Nc3ccc(C)c(C)c3)c2cc1OC`, the survival was inactive: 72%. In the case of `COc1ccc(CCCc2nnc(SCC(=O)Nc3cccc(C)c3)o2)cc1`, the survival is inactive: 84%. The value for `Cc1nn(CCC(=O)NCc2ccc(Cl)cc2)c(=O)c2nn(-c3ccccc3)c(C)c12` was active: -3%; that for `COc1ccc(NC(=O)CSc2nc3ccccc3n2CC(=O)N2CCCCC2C)cc1` (stereo not given) was inactive: 72%; that for `COc1ccc(-c2onc(C)c2C)cc1S(=O)(=O)NCc1ccc(C)o1` was inactive: 67%.

As for `CCOC(=O)c1ccc(-c2ccc(/C=C(\C#N)c3nc4ccc(C)cc4[nH]3)o2)cc1`, the survival is inactive: 62%. On to `COCC(C)NC(=O)c1cc2c(=O)n3cccc(C)c3nc2s1` (stereo not given), for which the survival is inactive: 89%.

For the compound `Cc1c(Cl)cccc1NC(=O)CC(c1ccc(F)cc1)N1Cc2ccccc2C1=O` (stereo not given), the survival was active: 10%. In the case of `CCOc1cccc(CC(=O)NCc2ccc3c(c2)CCN3C(C)=O)c1OCC`, the survival was inactive: 89%. The figure for `Cc1ccc2[nH]cc(C(c3ccccc3)c3ccc(C)s3)c2c1` (stereo not given) is inactive: 46%; for `CCC(C)NC(=O)CCc1c(C)nc2c(c(C)nn2-c2ccc(C)cc2)c1C` (stereo not given) it is inactive: 102%; for `CCN(c1ccc(Cl)cc1)S(=O)(=O)c1nnc(NC(=O)c2ccccc2C)s1` it is inactive: 18%.

With `O=C(NCCCc1nc2ccccc2n1Cc1ccccc1Cl)c1ccco1`, the survival was inactive: 95%.

Regarding `CC(=O)Nc1nonc1-c1nc2ccccc2n1Cc1ccc(Cl)cc1Cl`, the survival was inactive: 100%. The value for `CC(CNC(=O)C1CCN(C(=O)N2CCOc3ccc(Cl)cc32)CC1)c1ccccc1` (stereo not given) was inactive: 80%; that for `O=[N+]([O-])c1cc(-c2nc(-c3ccco3)no2)ccc1NCc1ccccc1` was inactive: 70%.

For the compound `Nn1cnnc1SCC(=O)N(C1CCCCC1)C1CCCCC1`, the survival was inactive: 107%. The value for `O=C(CN1CCCC1)Nc1ccc(F)cc1` was inactive: 102%. The value for `COc1ccc(-n2nc(C(=O)N(C)c3cc(Cl)ccc3OC)c3c4ccccc4n(C)c3c2=O)cc1` was inactive: 80%; that for `COc1ccc(Cn2c(CO)cnc2SCc2ccc(F)cc2)cc1` was active: -1%; that for `CCc1ccc(Sc2cc(C(=O)O)c3ccccc3n2)cc1` was inactive: 70%. On to `N#CC1=C2SCN(C3CCCCC3)CN2C(=O)CC1c1c(F)cccc1Cl` (stereo not given), for which the survival is inactive: 88%.

Turning to `Cc1ccc(Cc2nc3ccccc3nc2SCC(=O)N2CCN(c3ccccc3)CC2)cc1`, the survival is inactive: 91%. In the case of `Cc1ccc(NC(=O)CC2Nc3cc(C)c(C)cc3NC2=O)c(C)c1` (stereo not given), the survival was inactive: 73%. On to `CCOc1ccccc1NC(=O)C1=C(C)Nc2ncnn2C1c1ccc(NC(C)=O)cc1` (stereo not given), for which the survival was inactive: 45%. Take `COc1ccc(S(=O)(=O)c2nnn(-c3ccccc3F)c2C)cc1`: the survival is inactive: 78%. For `Cc1nn(CCCC(=O)NCc2ccc(OC(C)C)cc2)c(=O)c2c1sc1ccccc12`, the survival is inactive: 90%.

As to `Cc1cccc(CCNC(=O)c2ccc(CSCc3cccc(Cl)c3)o2)c1`, the survival is inactive: 67%. `Cc1cccc(N(Cc2cc3ccccc3[nH]c2=O)C(=O)c2cccc(Cl)c2)c1`: the survival is inactive: 87%. The value for `CCCn1c(=N)n(CC(O)COc2ccccc2OC)c2ccccc21` (stereo not given) was inactive: 66%.
